Values marked as one replicate rest on one cluster of the flow cell; about a third of the high ones do not repeat.
tested on: ATP; assay: switch fluorescence ratio, 500 uM ATP over buffer (Cy3 cluster intensity, sum of 5 cycles each) (fold (ratio)); higher = stronger signal-on switching upon ATP binding; sequences stand for … in TCGTCGGCAGCGTCAGATGTGTATAAGAGACAGTTTTTTTTTTTTTTTTTTTTTTTTT…TC; conditions: aptamer strand: ATP DNA aptamer (quencher-CACCTGGGGGAGTATTGCGGAGGAAGG + anchor), 100 nM annealed; ATP concentration: 500 uM; one replicate
In short: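 Switching-strand clusters labelled with Cy3 on a modified Illumina MiSeq flow-cell were annealed to 100 nM quencher-labelled ATP aptamer, imaged in selection buffer, and re-imaged after 15 min with 500 uM ATP at 22 °C. This was done over five cycles with NaOH stripping and re-annealing in between. The fluorescence ratio is summed target-cycle over summed buffer-cycle Cy3 intensity per cluster, averaged per switch-domain sequence, excluding clusters outside 100-1000 RFU.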
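Note: ATP exposure 15 min at 22 °C before imaging.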

Sequence	switch fluorescence ratio
GTGTTGCTGG	0.997
GTGTTGTGTG	0.995
GTGTTTGGAC	1
GTTAAAGCAG	1
GTTAAATATT	1.01
GTTAACCGCT	1.08
GTTAAGCCTG	1
GTTAATCAGG	0.972
GTTACAAAAC	0.977
GTTACTGGTT	1.09
GTTACTGTTT	0.988
GTTACTTATG	1.05
GTTACTTTAG	1.06
GTTAGAACTC	0.981
GTTAGACGTG	1.02
GTTAGCCATG	1.04
GTTAGGTGAT	1.07
GTTAGTAGGG	0.938
GTTAGTCACG	0.975
GTTATAGCGC	0.945
GTTATCATAT	1.01
GTTATGGACG	0.96
GTTATGGGAC	1.01
GTTATGTTCC	1.04
GTTATTGCCA	0.998
GTTCAAAGTC	1.02

Sequence	switch fluorescence ratio
GTTCAAGTGC	0.982
GTTCAATCTG	0.967
GTTCAGTCCT	1.04
GTTCAGTTTT	1.03
GTTCATGAGA	1.05
GTTCCACGGG	1.01
GTTCCAGTTA	0.982
GTTCCATTAG	1.03
GTTCCGGCGC	0.992
GTTCGACTGC	1.07
GTTCGCATGG	1.26
GTTCGCCACG	0.984
GTTCGCTGGT	1.02
GTTCGGCCTT	1.06
GTTCGGCGGT	1
GTTCGGGGGA	1.05
GTTCGGGGTC	1.07
GTTCGGTATA	0.977
GTTCGTTACA	0.977
GTTCGTTTGC	1.04
GTTCTAGATA	0.983
GTTCTATCTT	0.944
GTTCTATTAG	0.997
GTTCTCATAT	0.995
GTTCTCCGGA	1.02
GTTCTGGCGC	1.02

Sequence	switch fluorescence ratio
GTTGAACCGA	1.11
GTTGAACGG	0.963
GTTGAATATA	1.03
GTTGACATG	0.905
GTTGAGCAGC	1.04
GTTGATATTA	1.04
GTTGATCATT	1
GTTGATCGA	0.998
GTTGATGCGA	1.07
GTTGCCCTAG	1.01
GTTGCCGACA	1.03
GTTGCCGCGG	1
GTTGCCTAGC	0.955
GTTGCGGGGA	1.01
GTTGCGTCCC	1.01
GTTGCTACAG	1.01
GTTGCTCGTA	0.836
GTTGGAAAAA	0.947
GTTGGAATCA	0.995
GTTGGAGAAA	1.01
GTTGGATTCG	0.981
GTTGGCATG	1.01
GTTGGCCGAA	1
GTTGGCGTTA	0.981
GTTGGGCTTC	1.01
GTTGGGGACT	1.03

Sequence	switch fluorescence ratio
GTTGGTAAAG	0.968
GTTGGTCAGC	0.982
GTTGTAAATT	0.97
GTTGTACCCT	1.06
GTTGTAGCCC	0.99
GTTGTATGGT	1
GTTGTC	0.943
GTTGTCGCCT	1.05
GTTGTGGACG	0.917
GTTGTGGGCA	0.983
GTTGTTAAGT	1.01
GTTGTTCTGT	0.964
GTTTAAAATA	1.02
GTTTAAGAAC	1.05
GTTTAAGATC	0.993
GTTTACACGG	1
GTTTACTTTC	1.03
GTTTAGCAAC	1.09
GTTTAGCGGC	1
GTTTAGGATG	1.01
GTTTAGGTTC	1.07
GTTTAGTCTT	1.02
GTTTATAAAT	1
